Measured values published in PubChem BioAssay AID1508642 (National Center for Advancing Translational Sciences (NCATS), 2021).
The whole screen tested about 43,000 compounds, of which about 200 (0.47%) were called active. About 12% were inconclusive and are not listed. Calls come from the whole dose curve; as a rule, active = well fitted cell-killing curve with a large enough effect; inconclusive = small, poorly fitted or top-dose-only effect, or effect the other way; inactive = flat fitted curve, though single readings scatter. Some of the results follow.

assay: Cell viability qHTS assay in S16 Pmp22-F2sN cells; conditions: S16 Pmp22-F2sN Schwann cells (luciferase reporters placed in the Pmp22 gene) viability, CellTiter-Glo, 24 h; series mostly up to 57.5 µM; activity change, negative = cytotoxicity: at the top concentration; note: nearly all actives have a fitted effect of over 65% in size
Method in brief: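 Rat S16 Schwann reporter line, 24 h treatment with library compounds delivered at 23 nL per well. Cell viability by CellTiter-Glo luminescence.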
% is set by controls: 0 for no effect and ±100 for the full control effect.

| SMILES | activity change, negative = cytotoxicity |
| --- | --- |
| Cc1ccc(C)c(N2CCN(C(=O)CCn3c(=O)c4cccn4c4cccnc43)CC2)c1 | inactive: 2.23% |
| COc1ccccc1Nc1nc(-c2ccccc2Cl)c2cc(Br)ccc2n1 | inactive: 5.13% |
| CC1=C(C(=O)Nc2ccc(Cl)cc2)C(C(C)C)n2nc(SCc3ccc(Cl)cc3)nc2N1 (configuration not stated) | inactive: -2.11% |
| Cc1cc(C)c2c(CC(=O)Nc3ccc(S(=O)(=O)Nc4ncccn4)cc3)coc2c1 | inactive: -5.55% |
| COc1ccc(OC)c(CCNC(=O)C2=C(C)C(=O)OC23CCC(C)CC3)c1 (configuration not stated) | inactive: -2.59% |
| O=C(Cn1nc(C(F)(F)F)c2c1CCC2)Nc1ccc(Cl)cc1 | inactive: 6.7% |
| COC(=O)c1cc(NC(=O)c2sc3ncn(Cc4cccc(F)c4)c(=O)c3c2C)cc(C(=O)OC)c1 | inactive: 13.9% |
| COc1cc(CN(C(=O)c2cccc(C)c2)c2ccccn2)cc(OC)c1OC | inactive: 2.11% |
| Cc1ccc(-n2c(SCC(=O)NCc3ccccc3)nc3c([nH]c4ccccc43)c2=O)cc1 | inactive: 6.46% |
| Cc1ccccc1CCNC(=O)C1CCN(c2nc3ccccc3nc2C(F)(F)F)CC1 | inactive: -8.88% |
| O=C(NCc1ccccc1Cl)c1cc(=O)[nH]c2ccc(S(=O)(=O)N3CCCCC3)cc12 | inactive: 2.25% |
| COc1ccccc1NC(=O)CCS(=O)(=O)c1cc2c3c(c1)CCN3C(=O)CC2 | inactive: 9.42% |
| COc1ccc(CNC(=O)CSc2n[nH]c(-c3ccc(OC)cc3)n2)cc1 | inactive: -15.6% |
| Cc1ccc(NC(=O)c2cc3c([nH]c2=O)CC(C)(C)CC3=O)c(C)c1 | inactive: 0.563% |
| Cc1ccccc1-c1nc(CS(=O)(=O)CC(=O)Nc2cc(Cl)cc(Cl)c2)c(C)o1 | inactive: 22.4% |
| CC(C)c1ccc2c(c1)-c1ccccc1S(=O)(=O)N2CC(=O)N1CCCCC1 | inactive: -8.13% |
| COc1cc(Cn2c(=O)sc3ccccc32)ccc1OCCC(C)C | inactive: -6.35% |
| Cc1cc(Cl)ccc1OCC(=O)Nc1c(C(=O)c2ccccc2)oc2ccccc12 | inactive: 4.62% |
| O=C(CSc1ncc(-c2ccccc2)[nH]1)Nc1cccc(C(F)(F)F)c1 | inactive: -2.12% |
| COc1ccccc1NC(=O)c1c(NC(=O)Cc2ccccc2)sc2c1CCC(C(C)(C)C)C2 (configuration not stated) | inactive: 0.465% |
| CCc1ccc(CNC(=O)Cn2c(-c3cccs3)cc3cc(F)ccc32)cc1 | inactive: 2.4% |

| SMILES | activity change, negative = cytotoxicity |
| --- | --- |
| CCn1nc(C)c(CCN(C)C(=O)Nc2cc(C)cc(C)c2)c1C | inactive: 3.58% |
| O=C(Nc1cnc(N2CCC(N3CCCCC3)CC2)c(C(=O)O)c1)c1ccc(Br)cc1 | inactive: 10.4% |
| Cc1ccc(CSc2nc3ccc(NC(=O)COc4ccc(F)cc4)cc3s2)cc1 | inactive: 6.54% |
| COc1ccccc1NC(=O)Cn1c(=O)n(Cc2ccccc2)c(=O)c2c3c(sc21)CN(C(C)=O)CC3 | inactive: 1.05% |
| CCn1ccc2c(OCC(=O)NCc3ccc(C)cc3)cccc2c1=O | inactive: -3.73% |
| Cc1cc(C)nc(-n2nc(C)c3c2NC(=O)CC3c2cc(F)ccc2F)n1 (configuration not stated) | inactive: -10.7% |
| COc1ccc(-c2cc(C(C)=O)c(C)n2CCC(=O)Nc2ccc(C(F)(F)F)cc2)cc1 | inactive: -24.3% |
| Nc1nonc1C(=O)NCCNCc1ccc(Cl)c(Cl)c1 | inactive: 26.9% |
| Cc1ccc(CNC(=O)c2ccc(-c3nc(CS(=O)c4ccccc4)c(C)o3)cc2)cc1 (configuration not stated) | inactive: 18.2% |
| Cc1cccc(-c2nc(CSCC(=O)NCCc3ccc(Cl)cc3)c(C)o2)c1 | inactive: -1.88% |
| Cc1ccc(-c2nn(CC(=O)NC3CCCC3)c3c2cnc2ccccc23)cc1 | inactive: 22.5% |
| Cc1ccc(C)c(NC(=O)CN2C(=O)c3cccnc3Oc3ccc(C)cc32)c1 | inactive: 2.69% |
| Cc1ccc(C)c(NC(=O)c2nn(C)c3c2CS(=O)(=O)c2ccccc2-3)c1 | inactive: 12.8% |
| CC(C)(C)C1CCc2c(sc3nnn(CCOc4ccccc4)c(=O)c23)C1 (configuration not stated) | inactive: 3.76% |
| COc1cc(/C=C/c2nc(C#N)c(NCCc3ccccc3)o2)cc(OC)c1OC | inactive: -28.7% |
| COc1cc(NC(=O)c2nc3ccccc3nc2N2CCCCC2)cc(OC)c1OC | inactive: -16.8% |
| CCOC(=O)N1CCc2c(sc3c2c(=O)n(CCc2ccccc2)c(=O)n3CC(=O)Nc2cccc(C)c2)C1 | inactive: 1.98% |
| COCCn1ccc2c(OCC(=O)Nc3ccccc3F)cccc2c1=O | inactive: 6.82% |
| CC(C)(C)c1ccc(CN(Cc2ccco2)c2cnc(S(C)(=O)=O)nc2C(=O)Nc2ccc(F)cc2)cc1 | inactive: 1.73% |
| Cc1cc(C)c(NC(=O)Cn2c(=O)nc(-c3ccccc3)c3cc(Cl)ccc32)c(C)c1 | inactive: 3.96% |
| COc1cc(NC(=O)N2CCC3(CC2)Nc2cc(F)ccc2-n2cccc23)cc(OC)c1OC | inactive: -11.6% |

| SMILES | activity change, negative = cytotoxicity |
| --- | --- |
| COc1ccc(OC)c(C2C(C(=O)N3CCCCC3)=C(C)Nc3nc4ccccc4n32)c1 (configuration not stated) | inactive: 10.8% |
| N#C/C(=C/c1cn(Cc2ccccc2Cl)c2ccccc12)C(=O)Nc1cccc(Cl)c1 | inactive: -3.18% |
| CCc1ccc(-c2nn(CC(=O)Nc3ccccc3C)c3c2cnc2ccc(C)cc23)cc1 | inactive: 0.783% |
| Clc1ccc(OCc2nc3ccccc3n2Cc2ccccc2)c(Cl)c1 | inactive: 8.57% |
| Cc1cc(=O)n(Cc2cccc(F)c2)c2c1c(C)nn2-c1cccc(F)c1 | inactive: 5.99% |
| CCc1cccc(CC)c1-n1nnc2c(sc3nc(C)cc(C)c32)c1=O | inactive: 7.01% |
| Cc1ccccc1CN1c2ccccc2-c2nc(SCC(N)=O)ncc2S1(=O)=O | inactive: 11.4% |
| COC(=O)c1c(NC(=O)c2cc(OC)c(OC)c(OC)c2Br)sc2c1CCC(C)C2 (configuration not stated) | inactive: -8.98% |
| CC(C)CNc1ncnc2c1nnn2C | inactive: -12.1% |
| O=C(CCNS(=O)(=O)c1cccc2nsnc12)NCc1ccccc1 | inactive: -2.53% |
| COc1ccc(CNC(=O)CCn2nc(C)c3c(C)n(-c4ccccc4)nc3c2=O)c(OC)c1 | inactive: 11.2% |
| CNC(=O)Cn1c(=O)c2cccn2c2ccc(F)cc21 | inactive: -6.76% |
| COc1ccc(Cl)cc1NC(=O)Cn1nc(Cc2ccncc2)c2ccccc2c1=O | inactive: -26.1% |
| CCc1ccccc1NC(=O)C1CCN(C(=O)N2CC(C)Oc3ccc(Cl)cc32)CC1 (configuration not stated) | inactive: -20.6% |
| COc1ccccc1NC(=O)N1CCC(CN2CCc3ccccc3C2)CC1 | inactive: 4.28% |
| Cc1cc(F)ccc1NC1(c2ccccc2)C(=O)c2ccccc2C1=O | inactive: -0.958% |
| CCOc1ccccc1NC(=O)Cn1c(=O)n(Cc2ccco2)c(=O)c2ccc(C(=O)NC3CCCC3)cc21 | inactive: 11.8% |
| CCOc1ccc(N(CC(=O)Nc2ccccc2CC)S(=O)(=O)c2c(C)[nH]c(=O)[nH]c2=O)cc1 | inactive: 6.67% |
| Cc1ccc(NC(=O)Cn2c(=O)oc3ccccc32)cc1C | inactive: 4.33% |
| Cc1ccc(NC(=O)c2sc3nc[nH]c(=O)c3c2C)cc1Cl | inactive: -12.1% |
